Test results published in patent US20250351832A1, “PHYTOCHEMICALS AS BIOPESTICIDES AND BIOSTIMULANTS” (KAY BEE BIO ORGANICS PVT. LTD., priority 2024, published 2025).

Columns and labels:
[1] = system: Xanthomonas axanopodis pv. punicae; conditions: pomegranate plants, after 7 days, dose 1 ml/gm/lit
[2] = system: Xanthomonas axanopodis pv. punicae; experiment: In vitro well diffusion technique (Ex. 21); conditions: nutrient agar, dose 1 ml/gm/lit., after three days

Compound | % Disease reduction over Control [1] | Zone of Inhibition (mm) [2]
CC12CCC(CC1)C(C)(C)O2 [1,8 cineole] | 53.91% | 8.25 mm
CC1=CCC2CC1C2(C)C (stereo not drawn) [Alpha-pinene] | 50.43% | 7.50 mm
CC=Cc1cc(OC)c(OC)cc1OC [B-Asarone] | – | 7.50 mm
C=C1C2CCC(C2)C1(C)C (stereo not drawn) [Camphene, camphene] | 53.04% | 9.00 mm
CC12CCC(CC1=O)C2(C)C (stereo not drawn) [Camphor] | 60.87% | 10.00 mm
COc1cc(CNC(=O)CCCC/C=C/C(C)C)ccc1O [Capsaicin] | 73.91% | 12.25 mm
Cc1ccc(C(C)C)cc1O [Carvacrol] | 60.00% | 12.25 mm
C=CCc1ccc(OC)c(O)c1 [Chavibetol] | 71.30% | 13.25 mm
CC(C)=CCCC(C)=CC=O [Citral] | 63.48% | 12.50 mm
CC(C)c1ccc(C=O)cc1 [Cuminaldehyde] | 65.22% | 13.75 mm
C=C(C)[C@H]1CC=C(C)CC1 [D-limonene] | 62.61% | 11.75 mm
O=c1oc2c(O)c(O)cc3c(=O)oc4c(O)c(O)cc1c4c23 [Ellagic acid] | 58.26% | 10.25 mm
CCCCCCCCCC(C)=O [Embodiment 2-undecanone, 2-undecanone] | 69.57% | 14.57 mm
C=CCc1ccc(O)c(OC)c1 [Eugenol] | 61.74% | 11.00 mm
CCCCC[C@H](O)CC(=O)CCc1ccc(O)c(OC)c1 [Gingerol] | 63.48% | 9.75 mm
CC1CCC(C(C)C)C(O)C1 (stereo not drawn) [Menthol] | 75.65% | 12.00 mm
C=CCc1ccc(OC)cc1 [Methyl chavicol] | 64.35% | 11.25 mm
CCCCCCCCCCCCCCCC(=O)O [Palmitic acid] | 69.57% | 11.50 mm
O=C(/C=C/C=C/c1ccc2c(c1)OCO2)N1CCCCC1 [Piperine] | 54.78% | 7.00 mm
Cc1ccc(C(C)C)c(O)c1 [Thymol] | 64.35% | 10.75 mm
CC1=CC(=O)C(C(C)C)=CC1=O [Thymoquinone] | 67.83% | 12.75 mm
Cc1ccc(C(C)C)cc1 [p-Cymene] | 74.78% | 11.50 mm
C/C=C\c1cc(OC)c(OC)cc1OC [β-Asarone] | 59.13% | –
Berberine | 66.96% | 10.50 mm
Parthenin | 55.65% | 7.00 mm
